The text below walks through data of article PMC4336329 (PLoS ONE, 2015).

Molecules are shown by their SMILES. About 2,200 (0.71%) of roughly 310,000 compounds showed an effect of 50% or more. Effects have a minus sign here. The list shows a part of the results.

The target in the experiment is human ether-à-go-go-related gene (hERG) potassium channel (human, UniProt Q12809). The experiment is described as follows: primary screen, population patch clamp on CHO cells stably expressing hERG.
Sequence of human ether-à-go-go-related gene (hERG) potassium channel (Q12809 whole entry, looked up): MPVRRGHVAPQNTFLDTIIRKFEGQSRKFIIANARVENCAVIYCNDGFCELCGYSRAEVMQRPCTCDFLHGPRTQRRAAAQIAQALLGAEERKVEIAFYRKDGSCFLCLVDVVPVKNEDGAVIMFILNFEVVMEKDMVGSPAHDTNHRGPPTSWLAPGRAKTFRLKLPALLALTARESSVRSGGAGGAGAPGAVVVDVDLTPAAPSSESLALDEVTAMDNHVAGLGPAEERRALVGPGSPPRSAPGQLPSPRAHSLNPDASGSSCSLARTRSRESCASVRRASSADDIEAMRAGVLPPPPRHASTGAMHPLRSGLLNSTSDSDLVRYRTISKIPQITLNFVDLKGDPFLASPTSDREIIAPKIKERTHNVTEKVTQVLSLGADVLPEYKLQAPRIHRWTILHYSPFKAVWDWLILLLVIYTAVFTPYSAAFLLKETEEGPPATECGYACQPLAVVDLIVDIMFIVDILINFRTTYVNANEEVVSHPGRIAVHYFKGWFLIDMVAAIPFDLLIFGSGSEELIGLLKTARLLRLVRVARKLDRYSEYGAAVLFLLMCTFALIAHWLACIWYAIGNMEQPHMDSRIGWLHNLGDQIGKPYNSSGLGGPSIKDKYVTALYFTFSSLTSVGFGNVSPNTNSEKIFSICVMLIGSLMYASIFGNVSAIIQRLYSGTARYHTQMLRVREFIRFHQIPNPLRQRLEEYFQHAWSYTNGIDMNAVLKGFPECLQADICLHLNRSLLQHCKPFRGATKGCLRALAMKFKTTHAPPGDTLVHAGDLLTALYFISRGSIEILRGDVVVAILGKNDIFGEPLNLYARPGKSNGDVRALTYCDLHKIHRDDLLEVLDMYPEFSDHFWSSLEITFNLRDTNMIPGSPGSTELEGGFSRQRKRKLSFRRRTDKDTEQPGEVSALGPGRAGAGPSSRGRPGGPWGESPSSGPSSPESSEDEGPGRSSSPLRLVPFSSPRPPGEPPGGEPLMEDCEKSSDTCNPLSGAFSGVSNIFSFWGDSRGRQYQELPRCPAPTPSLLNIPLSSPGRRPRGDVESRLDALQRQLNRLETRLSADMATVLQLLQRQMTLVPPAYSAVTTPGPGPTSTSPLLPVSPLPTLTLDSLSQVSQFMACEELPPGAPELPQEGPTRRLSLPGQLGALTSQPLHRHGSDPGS
Consider `O=C(N/N=C/c1c(O)n(-c2cccc3ccccc23)c(=O)[nH]c1=O)c1ccncc1`, for which the “hERG current change (%, negative = inhibition) at 1uM” value is 10.8%.

In the case of `CCOC(=O)c1c(C)n(Cc2ccccc2)c2ccc(OCC(O)Cn3nc(C)cc3C)cc12` (centres unmarked), the “hERG current change (%, negative = inhibition) at 1uM” value came to 14.1%.

In the case of `COc1ccccc1NC(=O)c1cc(Sc2nncn2C)nc2ccccc12`, the “hERG current change (%, negative = inhibition) at 1uM” value is 13%.

Consider `CCOc1ccc(C(C)NC(=O)Cc2ccccc2)cc1OCC` (centres unmarked), for which the “hERG current change (%, negative = inhibition) at 1uM” value is on record as 10.8%.

In the case of `COc1cc(C(=O)Nc2sc3c(c2C(=O)NCc2ccco2)CCCC3)cc(OC)c1OC`, the “hERG current change (%, negative = inhibition) at 1uM” value was found to be 12.5%.

As to `Cc1ccc(CNC(=O)COc2ccccc2-c2ccccc2)cc1`, the “hERG current change (%, negative = inhibition) at 1uM” value stood at 6.26%.

`CN(C(=O)CC1C(=O)NCCN1Cc1ccoc1)C1CCOCC1` (centres unmarked): the “hERG current change (%, negative = inhibition) at 1uM” value is listed as 12.7%.

Turning to `O=c1c2ccccc2nc(-c2ccco2)n1-c1cccnc1`, the “hERG current change (%, negative = inhibition) at 1uM” value was -1.48%.

`Cc1ccc(C(=O)Cn2nnc(-c3ccccc3-n3cnnn3)n2)cc1`: the “hERG current change (%, negative = inhibition) at 1uM” value is reported as 2.81%.

Consider `CC(NC(=O)C1CCCN(S(=O)(=O)N2CCOCC2)C1)c1ccccc1` (centres unmarked), for which the “hERG current change (%, negative = inhibition) at 1uM” value was determined as 9.57%.

Consider `O=C(Nc1ccon1)c1ccc(F)c(S(=O)(=O)N2CCCCC2)c1`, for which the “hERG current change (%, negative = inhibition) at 1uM” value is 12.5%.

With `Cc1c(NC(=O)Nc2cccc(F)c2)c(=O)n(-c2ccccc2)n1C`, the “hERG current change (%, negative = inhibition) at 1uM” value is reported as 4.73%.

In the case of `Cc1cc(NC(=O)CCC(=O)N(Cc2cccs2)C(C(=O)NC2CCCC2)c2ccncc2)no1` (centres unmarked), the “hERG current change (%, negative = inhibition) at 1uM” value is recorded as 10.7%.

As to `O=C(CCN1C(=O)S/C(=C\c2cccs2)C1=O)NC1=NCCS1`, the “hERG current change (%, negative = inhibition) at 1uM” value is 2.97%.

For `CC(C)(C)C(=O)N1CCc2cc(-c3csc(N)n3)ccc21`, the “hERG current change (%, negative = inhibition) at 1uM” value was determined as 3.39%.

Consider `Cc1cc(OCC(=O)Nc2nnc(C3CC3)s2)ccc1C(C)C`, for which the “hERG current change (%, negative = inhibition) at 1uM” value was 11.1%.

Turning to `CCN(CC)S(=O)(=O)c1ccc2c(c1)[nH]c(=S)n2CC`, the “hERG current change (%, negative = inhibition) at 1uM” value is on record as 4.13%.

Regarding `O=c1[nH]c(=O)n(C2CCCCCC2)c(O)c1C=NC1CCN(Cc2ccccc2)CC1`, the “hERG current change (%, negative = inhibition) at 1uM” value is -0.59%.

Regarding `COc1ccc(S(=O)(=O)N2CCC(C(=O)N3CCCCC3)CC2)cc1Cl`, the “hERG current change (%, negative = inhibition) at 1uM” value was determined as 1.18%.

Regarding `CC(C)c1ccc(C2(C)NC(=O)N(CC(=O)NC3(C#N)CCCC3)C2=O)cc1` (centres unmarked), the “hERG current change (%, negative = inhibition) at 1uM” value is on record as 3.96%.

Take `Cc1ccccc1-n1nc2c(c1NC(=O)c1ccc3c(c1)OCO3)CS(=O)(=O)C2`: the “hERG current change (%, negative = inhibition) at 1uM” value amounted to 3.55%.

For the compound `COc1ccc(S(=O)(=O)N(Cc2ccccc2)c2ccccc2C(=O)O)cc1`, the “hERG current change (%, negative = inhibition) at 1uM” value is reported as 25.4%.

Regarding `COc1cc(Br)cc(/C=N/N(CCO)C2=NS(=O)(=O)c3ccccc32)c1OC`, the “hERG current change (%, negative = inhibition) at 1uM” value is recorded as 5.63%.

For `O=C(C/C=N\OCc1ccc(Cl)cc1Cl)Nc1ccccc1`, the “hERG current change (%, negative = inhibition) at 1uM” value came to 5.24%.

On to `Cn1nnc(NC(=O)c2cccc(F)c2)n1`, for which the “hERG current change (%, negative = inhibition) at 1uM” value worked out at 15.3%.

For `CS(=O)(=O)CCC(C(=O)Nc1ccc2c(c1)OCO2)N1Cc2ccccc2C1=O` (centres unmarked), the “hERG current change (%, negative = inhibition) at 1uM” value was found to be 16.1%.

As for `CN(C(=O)c1cccc(C#N)c1)c1nnc(C2CCOC2)s1` (centres unmarked), the “hERG current change (%, negative = inhibition) at 1uM” value is recorded as 2.57%.

Turning to `Cc1ccc(CN(C)c2nc(-c3cccnc3)nc3ccccc23)o1`, the “hERG current change (%, negative = inhibition) at 1uM” value was 10.3%.

Consider `COCCN1Cc2cccc(C(=O)Nc3cccnc3)c2C1=O`, for which the “hERG current change (%, negative = inhibition) at 1uM” value was determined as 3.55%.

On to `COc1ccc(-n2c(-c3ccc(Br)cc3)c[n+]3c2SC(C)C3)cc1.[Br-]` (centres unmarked), for which the “hERG current change (%, negative = inhibition) at 1uM” value is -26%.

`C=CCC1(CC=C)CCCN1C(=O)CC1C(=O)NCCN1Cc1cccc(OC)c1OC` (centres unmarked): the “hERG current change (%, negative = inhibition) at 1uM” value is on record as 9.3%.

As for `CCn1ncc(Br)c1C(=O)N(C)C12CC3CC(CC(C3)C1)C2`, the “hERG current change (%, negative = inhibition) at 1uM” value is 9.85%.

Turning to `CCOc1ccc(-c2cc(C)[n+](CCN3CCOCC3)c(-c3ccc(OCC)cc3)c2)cc1.[O-][Cl+3]([O-])([O-])[O-]`, the “hERG current change (%, negative = inhibition) at 1uM” value is listed as -3.34%.

`CCn1c(COc2ccccc2C)nnc1SCC(=O)N1CCC(C)CC1`: the “hERG current change (%, negative = inhibition) at 1uM” value is recorded as 1.03%.

Take `Cc1cc(C(=O)NNC(=O)c2cccc(Cl)c2)no1`: the “hERG current change (%, negative = inhibition) at 1uM” value is listed as 6.46%.

As for `Cc1ccc(CCNC(=O)CNS(=O)(=O)c2ccc3nc(C)sc3c2)cc1`, the “hERG current change (%, negative = inhibition) at 1uM” value came to 6.59%.

For `O=c1c(O[C@H]2O[C@@H](CO)[C@H](O)[C@@H](O)[C@@H]2O)c(-c2ccc(O)cc2)oc2cc(O)cc(O)c12`, the “hERG current change (%, negative = inhibition) at 1uM” value is reported as 14.1%.

On to `CCNC(=O)c1c(NC(=O)C2COc3ccccc3O2)sc2c1CCCC2` (centres unmarked), for which the “hERG current change (%, negative = inhibition) at 1uM” value worked out at 12.3%.

With `CCN(CC)C(=O)CSc1nc2sc3c(c2c(=O)n1CCCOC)CCC3`, the “hERG current change (%, negative = inhibition) at 1uM” value is reported as 11.8%.

Regarding `CCOC(=O)c1nn(-c2ccccc2C)c(=O)c(C#N)c1C`, the “hERG current change (%, negative = inhibition) at 1uM” value is 19.2%.

In the case of `O=C(O)c1sccc1OCc1ccccc1`, the “hERG current change (%, negative = inhibition) at 1uM” value came to 7.68%.

For the compound `Oc1ccc(Cl)c(Cl)c1`, the “hERG current change (%, negative = inhibition) at 1uM” value was 9.77%.

As to `C/C(=N/NC(=O)c1ccc(C(C)(C)C)cc1)c1cccnc1`, the “hERG current change (%, negative = inhibition) at 1uM” value is 7.59%.

Take `CCCN(CCC)C(=O)Cn1c(=O)n(CCCCC(=O)NC2CCCC2)c(=O)c2ccccc21`: the “hERG current change (%, negative = inhibition) at 1uM” value was found to be 7.05%.

Regarding `Cc1cccnc1NC(=S)Nc1ccc(F)cc1F`, the “hERG current change (%, negative = inhibition) at 1uM” value is listed as 15.2%.

With `Cc1cc(C)nc(SCc2c(F)cccc2Cl)n1`, the “hERG current change (%, negative = inhibition) at 1uM” value is recorded as 9.77%.

With `Cc1sc2ncn(CC(=O)NCC(=O)N3CCN(c4ccc(F)cc4)CC3)c(=O)c2c1C`, the “hERG current change (%, negative = inhibition) at 1uM” value was 1.4%.

For the compound `C=CCOc1ccc(/C(O)=C2/C(=O)C(=O)N(CCCn3ccnc3)C2c2cccs2)cc1` (centres unmarked), the “hERG current change (%, negative = inhibition) at 1uM” value was found to be 19.1%.

For `COc1ccccc1NC(=O)C1CC(O)CN1C(=O)Oc1ccccc1` (centres unmarked), the “hERG current change (%, negative = inhibition) at 1uM” value worked out at 7.17%.

As to `Cc1cccc(NC(=O)CCN2C(=O)C3C4C=CC(C4)C3C2=O)c1` (centres unmarked), the “hERG current change (%, negative = inhibition) at 1uM” value is listed as 15.3%.

In the case of `O=C(Cn1[nH]c(=O)c2ccccc2c1=O)NCC1COc2ccccc2O1` (centres unmarked), the “hERG current change (%, negative = inhibition) at 1uM” value is -21%.

Regarding `CCOC(=O)C(NCc1ccco1)(NC(=O)c1ccccc1)C(F)(F)F` (centres unmarked), the “hERG current change (%, negative = inhibition) at 1uM” value was determined as 12.4%.

Consider `O=C(CCNC(=O)N1CC(=O)Nc2ccccc21)NCc1ccc(F)cc1`, for which the “hERG current change (%, negative = inhibition) at 1uM” value is on record as 24.3%.

As to `CCN(CC)S(=O)(=O)c1cccc(C(=O)NC(C)C(c2cccs2)N2CCCC2)c1` (centres unmarked), the “hERG current change (%, negative = inhibition) at 1uM” value was determined as 9.96%.

For the compound `CCc1ccc(NC(=S)NNC(=O)c2ccccc2OC(F)F)cc1`, the “hERG current change (%, negative = inhibition) at 1uM” value was found to be 13%.

With `COc1cccc(C(=O)N2CCC(n3nccc3NC(=O)CCOc3ccccc3)CC2)c1`, the “hERG current change (%, negative = inhibition) at 1uM” value is 41.6%.
